Source: paper PMC9911399, “Two distinct binding modes provide the RNA-binding protein RbFox with extraordinary sequence specificity”
Numbering of substitutions follows the chain as printed; changes in the protein carry UniProt numbers. Some of the results follow.

B1: AUGACCG (DNA:RNA)
RNA: GGGAGACCGGAAUUCAGAUUGUCCAUGACCGUUAAAUCCCGUCGUAGCCACCA
DNA 1: CAATCTGAATTCCGGTCTCCC
DNA 2: TGGTGGCTACGACGGGATT
B2: GUUCCCC (DNA:RNA)
RNA: B1 RNA with A25G, G27U, A28C, G31C
DNA 1: CAATCTGAATTCCGGTCTCCC
DNA 2: TGGTGGCTACGACGGGATT
B3: AAAACAG (DNA:RNA)
RNA: B1 RNA with U26A, G27A, C30A
DNA 1: CAATCTGAATTCCGGTCTCCC
DNA 2: TGGTGGCTACGACGGGATT
B4: GGCCAAA (DNA:RNA)
RNA: GGGAGACCGGAAUUCAGAUUGUCCGGCCAAAUUAAAUCCCGUCGUAGCCACCA
DNA 1: CAATCTGAATTCCGGTCTCCC
DNA 2: TGGTGGCTACGACGGGATT
B5: CAUUCCA (DNA:RNA)
RNA: B1 RNA with A25C, U26A, G27U, A28U, G31A
DNA 1: CAATCTGAATTCCGGTCTCCC
DNA 2: TGGTGGCTACGACGGGATT
B6: GCGGCCG (DNA:RNA)
RNA: B1 RNA with A25G, U26C, A28G
DNA 1: CAATCTGAATTCCGGTCTCCC
DNA 2: TGGTGGCTACGACGGGATT
B7: CUCGCGC (DNA:RNA)
RNA: B1 RNA with A25C, G27C, A28G, C30G, G31C
DNA 1: CAATCTGAATTCCGGTCTCCC
DNA 2: TGGTGGCTACGACGGGATT
B8: ACGGGGA (DNA:RNA)
RNA: B1 RNA with U26C, A28G, C29G, C30G, G31A
DNA 1: CAATCTGAATTCCGGTCTCCC
DNA 2: TGGTGGCTACGACGGGATT
B9: AACUGAG (DNA:RNA)
RNA: B1 RNA with U26A, G27C, A28U, C29G, C30A
DNA 1: CAATCTGAATTCCGGTCTCCC
DNA 2: TGGTGGCTACGACGGGATT
B10: AGCGGGU (DNA:RNA)
RNA: B4 RNA with G25A, C28G, A29G, A30G, A31U
DNA 1: CAATCTGAATTCCGGTCTCCC
DNA 2: TGGTGGCTACGACGGGATT
B11: CCACACA (DNA:RNA)
RNA: B4 RNA with G25C, G26C, C27A, A30C
DNA 1: CAATCTGAATTCCGGTCTCCC
DNA 2: TGGTGGCTACGACGGGATT
B12: GAAGGCG (DNA:RNA)
RNA: B1 RNA with A25G, U26A, G27A, A28G, C29G
DNA 1: CAATCTGAATTCCGGTCTCCC
DNA 2: TGGTGGCTACGACGGGATT
B13: UCAUCAU (DNA:RNA)
RNA: B1 RNA with A25U, U26C, G27A, A28U, C30A, G31U
DNA 1: CAATCTGAATTCCGGTCTCCC
DNA 2: TGGTGGCTACGACGGGATT
B14: AACGACA (DNA:RNA)
RNA: B4 RNA with G25A, G26A, C28G, A30C
DNA 1: CAATCTGAATTCCGGTCTCCC
DNA 2: TGGTGGCTACGACGGGATT
B15: AGAGAUC (DNA:RNA)
RNA: B4 RNA with G25A, C27A, C28G, A30U, A31C
DNA 1: CAATCTGAATTCCGGTCTCCC
DNA 2: TGGTGGCTACGACGGGATT
B16: AUCUGGG (DNA:RNA)
RNA: B1 RNA with G27C, A28U, C29G, C30G
DNA 1: CAATCTGAATTCCGGTCTCCC
DNA 2: TGGTGGCTACGACGGGATT
B17: UACUAUU (DNA:RNA)
RNA: B4 RNA with G25U, G26A, C28U, A30U, A31U
DNA 1: CAATCTGAATTCCGGTCTCCC
DNA 2: TGGTGGCTACGACGGGATT
B18: AGCCUGG (DNA:RNA)
RNA: B4 RNA with G25A, A29U, A30G, A31G
DNA 1: CAATCTGAATTCCGGTCTCCC
DNA 2: TGGTGGCTACGACGGGATT
B19: ACCUACA (DNA:RNA)
RNA: B4 RNA with G25A, G26C, C28U, A30C
DNA 1: CAATCTGAATTCCGGTCTCCC
DNA 2: TGGTGGCTACGACGGGATT
B20: GCAGGCU (DNA:RNA)
RNA: B1 RNA with A25G, U26C, G27A, A28G, C29G, G31U
DNA 1: CAATCTGAATTCCGGTCTCCC
DNA 2: TGGTGGCTACGACGGGATT

molecular target: T1, RBFOX1 RRM (Homo sapiens, UniProt Q9NWB1 109-208); experiment: EMSA; HiTS-Eq, 1 nM pool, 10 min; buffer printed only for the single-RNA assays: 10 mM Tris pH 7.5, 150 mM NaCl, 3.4 mM EDTA, 0.001% NP-40, 30 C; settings: tags: His6 N-terminal (pET28a); label: 5' 32P
T1 sequence: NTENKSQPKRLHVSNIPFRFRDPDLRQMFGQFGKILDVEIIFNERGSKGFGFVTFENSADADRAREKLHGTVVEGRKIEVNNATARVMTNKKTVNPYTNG
In short: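 A pool of RNA with 7 randomized nucleotides, 5′-radiolabelled and with DNA-annealed flanks, was equilibrated at 1 nM for 10 min in 50 µL with purified RbFox RRM, wild type or mutant, across increasing protein concentrations. Free RNA was separated by 8% native PAGE, excised, reverse-transcribed, barcoded by PCR and sequenced. Relative association constants were obtained from read-count changes of each RNA species versus the control reaction and normalised to the cognate motif.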

Row | Binder | binding signal
1 | B1 | 0.00982 KA relative to UGCAUGU
2 | B2 | 0.00516 KA relative to UGCAUGU
3 | B3 | 0.000298 KA relative to UGCAUGU
4 | B4 | 0.00186 KA relative to UGCAUGU
5 | B5 | 0.000288 KA relative to UGCAUGU
6 | B6 | 0.0202 KA relative to UGCAUGU
7 | B7 | 0.00969 KA relative to UGCAUGU
8 | B8 | 0.0118 KA relative to UGCAUGU
9 | B9 | 0.00736 KA relative to UGCAUGU
10 | B10 | 0.0177 KA relative to UGCAUGU
11 | B11 | 0.000537 KA relative to UGCAUGU
12 | B12 | 0.0185 KA relative to UGCAUGU
13 | B13 | 0.00181 KA relative to UGCAUGU
14 | B14 | 0.000724 KA relative to UGCAUGU
15 | B15 | 0.0129 KA relative to UGCAUGU
16 | B16 | 0.00383 KA relative to UGCAUGU
17 | B17 | 0.0027 KA relative to UGCAUGU
18 | B18 | 0.0177 KA relative to UGCAUGU
19 | B19 | 0.00126 KA relative to UGCAUGU
20 | B20 | 0.0121 KA relative to UGCAUGU
